Out of some 130,000 compounds screened, about 1,200 (0.92%) were called active. This list was built around the results that the source calls inconclusive (neither active nor inactive); the mix of calls is not that of the screen. Calls follow the shape of the dose curve; as a rule, active = well fitted cell-killing curve with a large enough effect; inconclusive = small, poorly fitted or top-dose-only effect; inactive = no such curve, though single readings can be large or run the other way. Potencies of inconclusive entries are doubtful fits and often do not repeat.
test: qHTS Screen for Compounds that Selectively Target Cancer Cells with p53 Mutations: Cytotoxicity of p53ts Cells at the Permissive Temperature; settings: H1299-p53A138V at 32C, ATP luminescence viability, 24 h; activity change, negative = cytotoxicity: at 46.1 µM (top of the series); also: nearly all actives have a fitted effect of over 55% in size;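 as to activity change, negative = cytotoxicity: 0% = DMSO and -100% = full killing by reference compound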
How it was run: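 Cells: H1299 p53ts (A138V), 600/well, pre-incubated 16–30 h at 37C. Cpd up to 46 uM, 24 h, 32C. Readout: ATPlite luminescence, 20 min RT. Normalization: DMSO vs tamoxifen 100 uM. AC50 by Hill equation.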
Potency is read from the fitted curve at half-maximal effect; tags tell the direction and shape of the fitted curve.

| Compound | Potency | activity change, negative = cytotoxicity |
| --- | --- | --- |
| Cc1ccc(C)c(CNC(=O)c2ccc3c(c2)nc2n3CCCCC2)c1 | inconclusive: 10 µM [cytotoxic, single point] |  |
| COc1ccc(CCN2CC34C=CC(O3)C(C(=O)NCc3ccccc3)C4C2=O)cc1OC (stereo not given) |  | inactive: -6.7% |
| Cn1ccc2cc3c(cc21)CCN3C(=O)Nc1cccnc1 | active: 10 µM |  |
| O=C(Nc1c(C(=O)Nc2ccc(F)cc2)oc2ccccc12)c1cc2ccccc2o1 | inconclusive: 12.6 µM [cytotoxic, partial curve] |  |
| c1ccc(-c2noc(-c3ccc4c(c3)OCO4)n2)nc1 | active: 0.631 µM |  |
| CCN(CC)C(=O)c1sc2nc(-c3ccc(OC)cc3)cn2c1C | inconclusive: 10 µM [cytotoxic, partial curve] |  |
| O=C1CC(c2cccc(O)c2)c2c(nc(SCc3ccccc3F)[nH]c2=O)N1 (stereo not given) | inconclusive: 3.98 µM [cytotoxic, single point] |  |
| Cc1c(NC(=O)Nc2ccc(Br)cc2F)sc2nc3n(c(=O)c12)CCC(C)CC3 (stereo not given) | inconclusive: 20 µM [cytotoxic, single point] |  |
| CCc1cccc(C)c1NC(=O)c1cc(S(=O)(=O)NCc2ccccc2Cl)ccc1F | inconclusive: 3.55 µM [cytotoxic, partial curve, poor fit] |  |
| COCn1c(-c2ccc(OC)c(OC)c2)nc2ccccc21 | inconclusive: 12.6 µM [cytotoxic, partial curve] |  |
| c1cc2c(cc1C1CCCCC1)c1c3n2CCCNC3CCC1 (stereo not given) | inconclusive: 35.5 µM [cytotoxic, single point] |  |
| COc1cc(C2/C(=C(\O)c3ccc4c(c3)CC(C)O4)C(=O)C(=O)N2CCCn2ccnc2)ccc1O (stereo not given) |  | inactive: -0.288% |
| CCc1ccc(-n2c(=O)c3c(C)c(C)sc3n(CC(=O)NCc3ccc(C)cc3)c2=O)cc1 |  | inactive: -0.91% |
| CCn1c(NCc2ccc(OC)cc2)nc2ccccc21 | inconclusive: 25.1 µM [cytotoxic, single point] |  |
| CC(C)C(c1nnnn1Cc1ccco1)N1CCN(c2nc3ccccc3s2)CC1 (stereo not given) | inconclusive: 25.1 µM [cytotoxic, partial curve] |  |
| COc1ccc(CCNC(=O)CCCCn2c(=O)c3ccccc3n(Cc3ccccc3C)c2=O)cc1OC | inconclusive: 31.6 µM [cytotoxic, single point] |  |
| Cc1nn(CC(=O)Nc2ccccc2C(F)(F)F)c(=O)c2cccn12 | inconclusive: 20 µM [cytotoxic, single point] |  |
| CCOc1ccc(C(=O)c2cn(CC(=O)Nc3ccc(F)cc3)c3cc4c(cc3c2=O)OCO4)cc1 |  | inactive: 1.86% |
| Cc1c(Cl)cccc1NC(=O)c1noc2c1CCCC2 |  | inactive: -24.1% |
| CC1(C)CC(=O)C2=C(C1)OC(N)=C(C#N)C2C#Cc1ccccc1 (stereo not given) |  | inactive: 5.41% |
| CN1CCN(C2=Cc3cc(Cl)ccc3Sc3cc(F)ccc32)CC1 | inconclusive: 25.1 µM [cytotoxic, single point] |  |
| CC1CCN(C(=O)CSc2c(C(C)C)cnc3c2c(=O)n(C)c(=O)n3C)CC1 |  | inactive: -7.89% |
| Cc1ccc(O)c(NC(=O)c2ccc(Br)c(S(=O)(=O)N3CCCCC3)c2)c1 | inconclusive: 25.1 µM [cytotoxic, single point] |  |

| Compound | Potency | activity change, negative = cytotoxicity |
| --- | --- | --- |
| CCCCN(CCCNc1ncnc2nc[nH]c12)c1ccccc1 | inconclusive: 10 µM [cytotoxic, partial curve] |  |
| COc1ccc(/C=C/C(=O)c2ccc(O)cc2O)cc1OC | inconclusive: 31.6 µM [cytotoxic, single point] |  |
| O=C(Nn1cc(C(=O)N2CCN(c3ccccc3F)CC2)c2ccccc2c1=O)c1cnccn1 | inconclusive: 0.0631 µM [cytotoxic, full curve, poor fit] |  |
| Cc1cc(C(=O)NC(C)C2CCCO2)cs1 (stereo not given) |  | inactive: -3.16% |
| CCCCCCn1c(CN2CCN(CCO)CC2)nc2c1c(=O)n(C)c(=O)n2C | active: 2.51 µM |  |
| Brc1ccccc1-c1nnc(-c2cccnc2)o1 | inconclusive: 12.6 µM [cytotoxic, single point] |  |
| COc1ccc(CCN2C(=O)c3[nH]nc(-c4ccccc4O)c3C2c2ccc(C)cc2)cc1OC (stereo not given) | inconclusive: 31.6 µM [cytotoxic, single point] |  |
| CCc1nnc(SC(CC)C(=O)NCCOC)c2cc3occc3n12 (stereo not given) | inconclusive: 31.6 µM [cytotoxic, single point] |  |
| Cc1cccc(NC(=O)CSc2nc(C)cc(C)c2C(=O)Nc2ccc(Cl)cc2)c1 | inconclusive: 6.31 µM [cytotoxic, single point] |  |
| CC(=O)c1cccc(NC(=O)c2cc3nc(C)cc(C)n3n2)c1 | inconclusive: 12.6 µM [cytotoxic, partial curve] |  |
| COc1cccc(C(=O)N2CCc3cc(OC)c(OC)cc3C2COc2ccc3c(C)cc(=O)oc3c2)c1 (stereo not given) |  | inactive: 1.63% |
| CCOCCCNC(=O)C(NC(=O)c1ccccn1)c1ccc(C)cc1 (stereo not given) | inconclusive: 0.199 µM [cytotoxic, full curve, poor fit] |  |
| O=C(Nc1nsc(-c2ccccc2)n1)c1cccs1 | active: 3.98 µM |  |
| Cc1ccc(-n2nc3c([n+]2[O-])CCc2c-3no[n+]2[O-])cc1 | inconclusive: 20 µM [cytotoxic, single point] |  |
| Cc1ccc2[nH]c(C)c(CCNC(=O)c3cc4cc(Br)ccc4oc3=O)c2c1 |  | inactive: -4.71% |
| Cc1ccc(-c2nnc(Nc3ccc(O)cc3)c3ccccc23)cc1S(=O)(=O)NC(C)(C)CO | inconclusive: 35.5 µM [cytotoxic, single point] |  |
| COc1ccc(Cl)cc1NC(=O)c1noc2c1CCc1ccccc1-2 |  | inactive: 1.82% |
| COc1ccc2nc(NC(=O)c3nc(S(=O)(=O)Cc4ccc(C)cc4)ncc3Cl)sc2c1 | inconclusive: 10 µM [cytotoxic, partial curve] |  |
| CSc1nc(NC(C)(C)C)nc(Oc2ccc(=O)[nH]n2)n1 |  | inactive: 4.1% |
| CCc1ccc(NC(=O)CCCc2nnc3n(C(C)CC)c(=O)c4sccc4n23)cc1 (stereo not given) |  | inactive: -2.05% |
| O=C(Nc1ccc2nc(-c3cccnc3)[nH]c2c1)C12CC3CC(CC(C3)C1)C2 | inconclusive: 35.5 µM [cytotoxic, single point] |  |
| COc1cc(-c2nc(-c3ccccc3)c(-c3ccc(Br)cc3)[nH]2)cc(OC)c1O | inconclusive: 35.5 µM [cytotoxic, single point] |  |
